pKi: −log10 of the molar value.
What follows are molecules tested against isolated recombinant JAK1 kinase domain (Homo sapiens (Human), UniProt P23458). Conditions: read-out: JAK1 Ki; isolated recombinant JAK1 kinase domain, 25 μM ATP.

Row | pKi | Compound
1 | 9.11 | Cc1cccc(CCNC(=O)c2ccc(Nc3nc4c(C5=CCN(C(=O)CCC(F)(F)F)CC5)cccn4n3)cc2)n1 [Example 2-216, N-[2-(6-methyl-2-pyridyl)ethyl]-4-[[8-[1-(4,4,4-trifluorobutanoyl)-3,6-dihydro-2H-pyridin-4-yl]-[1,2,4]triazolo[1,5-a]pyridin-2-yl]amino]benzamide]
2 | 9.12 | CN(C)c1cc(CC2CCN(C(=O)c3ccc(Nc4nc5c(C6=CCN(C(=O)CCC(F)(F)F)CC6)cccn5n4)cc3)C2)ncn1 (stereo not shown) [Example 2-217, 1-[4-[2-[4-[3-[[6-(dimethylamino)pyrimidin-4-yl]methyl]pyrrolidine-1-carbonyl]anilino]-[1,2,4]triazolo[1,5-a]pyridin-8-yl]-3,6-dihydro-2H-pyridin-1-yl]-4,4,4-trifluoro-butan-1-one]
3 | 9.00 | Cc1ccc(CC2CCN(C(=O)c3ccc(Nc4nc5c(C6=CCN(C(=O)CCC(F)(F)F)CC6)cccn5n4)cc3)C2)nc1 (stereo not shown) [Example 2-218, 4,4,4-trifluoro-1-[4-[2-[4-[3-[(5-methyl-2-pyridyl)methyl]pyrrolidine-1-carbonyl]anilino]-[1,2,4]triazolo[1,5-a]pyridin-8-yl]-3,6-dihydro-2H-pyridin-1-yl]butan-1-one]
4 | 9.18 | CCN(Cc1ccncc1)C(=O)c1ccc(Nc2nc3c(C4=CCN(C(=O)CCC(F)(F)F)CC4)cccn3n2)cc1 [Example 2-219, N-ethyl-N-(4-pyridylmethyl)-4-[[8-[1-(4,4,4-trifluorobutanoyl)-3,6-dihydro-2H-pyridin-4-yl]-[1,2,4]triazolo[1,5-a]pyridin-2-yl]amino]benzamide]
5 | 9.24 | O=C(NCCc1cccnc1)c1ccc(Nc2nc3c(C4=CCN(C(=O)CCC(F)(F)F)CC4)cccn3n2)cc1 [Example 2-220, N-[2-(3-pyridyl)ethyl]-4-[[8-[1-(4,4,4-trifluorobutanoyl)-3,6-dihydro-2H-pyridin-4-yl]-[1,2,4]triazolo[1,5-a]pyridin-2-yl]amino]benzamide]
6 | 8.87 | CC1CC1C(=O)N1CC=C(c2cccn3nc(Nc4ccc(C(=O)N(C)C5CCN(C)CC5)cc4)nc23)CC1 (stereo not shown) [Example 2-223, N-methyl-4-[[8-[1-(2-methylcyclopropanecarbonyl)-3,6-dihydro-2H-pyridin-4-yl]-[1,2,4]triazolo[1,5-a]pyridin-2-yl]amino]-N-(1-methyl-4-piperidyl)benzamide]
7 | 8.89 | CN1CCC(N(C)C(=O)c2ccc(Nc3nc4c(C5=CCN(C(=O)OCC(F)F)CC5)cccn4n3)cc2)CC1 [Example 2-225, 2,2-difluoroethyl 4-[2-[4-[methyl-(1-methyl-4-piperidyl)carbamoyl]anilino]-[1,2,4]triazolo[1,5-a]pyridin-8-yl]-3,6-dihydro-2H-pyridine-1-carboxylate]
8 | 8.47 | CCOC(=O)N1CC=C(c2cccn3nc(Nc4ccc(C(=O)NCCN5CCCC(C)C5)cc4)nc23)CC1 (stereo not shown) [Example 2-226, ethyl 4-[2-[4-[2-(3-methyl-1-piperidyl)ethylcarbamoyl]anilino]-[1,2,4]triazolo[1,5-a]pyridin-8-yl]-3,6-dihydro-2H-pyridine-1-carboxylate]
9 | 8.43 | CCOC(=O)N1CC=C(c2cccn3nc(Nc4ccc(C(=O)N5CCN(CCN(C)C)CC5)cc4)nc23)CC1 [Example 2-227, ethyl 4-[2-[4-[4-[2-(dimethylamino)ethyl]piperazine-1-carbonyl]anilino]-[1,2,4]triazolo[1,5-a]pyridin-8-yl]-3,6-dihydro-2H-pyridine-1-carboxylate]
10 | 8.49 | CCOC(=O)N1CC=C(c2cccn3nc(Nc4ccc(C(=O)N5CCOC(c6ccccn6)C5)cc4)nc23)CC1 (stereo not shown) [Example 2-228, ethyl 4-[2-[4-[2-(2-pyridyl)morpholine-4-carbonyl]anilino]-[1,2,4]triazolo[1,5-a]pyridin-8-yl]-3,6-dihydro-2H-pyridine-1-carboxylate]

From patent publication US9873709B2 (priority 2013, dated 2018)
